Test results taken from the RNAGym collection of RNA variant scans (doi:10.1093/nar/gkz1192).
Read counts are not given, so values of variants with three or more changes are uncertain.

B1: CPEB3 Ribozyme (parent)
chain: UAACAGGGGGCCACAGCAGAAGCGUUCACGUCGCAGCCCCUGUCAGAUUCUGGUGAAUCUGCGAAUUCUGCUGUAUAUCUC

Variants of: B1
Assay: self-cleavage, relative activity (ratio to wild type); higher = more cleavage; in vitro, sequencing
In short: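 For each CPEB3 ribozyme variant, relative activity is its cleaved/total read fraction divided by the unmutated ribozyme's. Barcoded error-prone PCR libraries were transcribed by T7 RNA polymerase (5 hours, 37°C) and held in DNase I for 15 min before an EDTA stop, with cleavage occurring throughout. Template-switching reverse transcription and Illumina sequencing were used to read the RNAs. A 5-read minimum applied, and results are the mean of three batches.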

| Variant | self-cleavage |
| --- | --- |
| UAAUAGGGGGCCGCGGCAGAAGCGCUCACGUCGCUGCCCCUGUCAGAGUCUGGUGAAUCUGCGAAUUCUGCUGUAUAUCUC [C4U A13G A15G U25C A35U U48G] | 0.09 |
| UAAUAGGGGGCCGCAGCAGAAGCGUUCACGUCGCAGCCCCUGUCAGAGUCUGGUGAAUCUGCGAAUUCUGCCGUAUAUCUC [C4U A13G U48G U72C] | 0.54 |
| UAAUAGGGGGCCGCAGCAGAAGCGUUCACGUCGCAGCCCCUGUCAGAUUCUGGUGAAACUGCGAAUUCUGCUGUAUAUCUC [C4U A13G U58A] | 0.4 |
| UAAUAGGGGGCCUCAGCAGAAGCGUUCACGACGCAGCCCCUGUCAGAUUCCGGUGAAUCUGCGAAUUCUGCUGUAUAUCUC [C4U A13U U31A U51C] | 1.08 |
| UAAUAGGGGGCCACGGUAGAAGCGUUCACGUCGCAGCCCGUGUCGGAUUCUGGUGAAUCUGCGAAUUCUGCUGUAUAUCUC [C4U A15G C17U C40G A45G] | 0.33 |
| UAAUAGGGGGCCACUGCAGAAGCGUUCACGACGCAGCCCCAGUCAGAUUCUGGUGAAUCUGCGGAUUCCGCUGUAUAUCUC [C4U A15U U31A U41A A64G U69C] | 0.24 |
| UAAUAGGGGGCCACAGCGGAAGCGUACACGUCGCAGCCCCUGUCAGGUUCUGGUGAACCUGCGAAUUCUGCCGUACAUCUC [C4U A18G U26A A47G U58C U72C U76C] | 0.61 |
| UAAUAGGGGGCCACAGCGGAAGCGUUCACGUCGCAGCCCCUGUCAGAUUCUGGUGAAUCAGCGAAUUCUGCUGUAUAUCUC [C4U A18G U60A] | 0.74 |
| UAAUAGGGGGCCACAGCGGAAGCGUUCACGUCGCAGCCCCUGUCAGAUUCUGGUGAAUCUGCGAAUCCUGCUGUAUAUCUC [C4U A18G U67C] | 0.34 |
| UAAUAGGGGGCCACAGCUGAAGCGUUCACGUCGCAGCCCCUGUCAGACUCUGGUGGAUCUGCGAAUUCUGCUGUAUAUCAC [C4U A18U U48C A56G U80A] | 0.21 |
| UAAUAGGGGGCCACAGCAGGAGCGUUUACGUCGCAGCCCCUGUCAGAUUCUGGUGAAUCUGCGAAUUCUGCUGUAUAUCUC [C4U A20G C27U] | 0.6 |
| UAAUAGGGGGCCACAGCAGUAGCGCUCACGUCGCAGCCCCUGUCAGAUUCUGGUGAAUCUGCGAAUUCUGCUGUAUAUCUC [C4U A20U U25C] | 0.41 |
| UAAUAGGGGGCCACAGCAGAGGCGUUCACGCCGCAGCCCCUGUCAGAUUCUGGUGAAUCUGCGAAUUCUGCUGUAUAUCUC [C4U A21G U31C] | 0.47 |
| UAAUAGGGGGCCACAGCAGAGGCGUUCACGUCGCAGCCCCCGGCAGAUUCUGGUGAAUCUGCGAAUUCUGCUGUAUAUCUC [C4U A21G U41C U43G] | 0.1 |
| UAAUAGGGGGCCACAGCAGAAGCGUUCGCGUCGCAGCCCCUGCCAGAUUCUGGUGAAACUGCGAAUUCUGCUGUAUACCUC [C4U A28G U43C U58A U78C] | 0.22 |
| UAAUAGGGGGCCACAGCAGAAGCGUUCACGUCGCGGCCCCUGUCAGAUUCUGGUGUAUCUGCGAACUCUGCUGUAUAUCUC [C4U A35G A56U U66C] | 1.02 |
| UAAUAGGGGGCCACAGCAGAAGCGUUCACGUCGCUGCCCCUGUCAGAUCCUGGCGAAUCUGCGAACUCUGCUGUAUAUCUC [C4U A35U U49C U54C U66C] | 0.19 |

| Variant | self-cleavage |
| --- | --- |
| UAAUAGGGGGCCACAGCAGAAGCGUUCACGUCGCAGCCCCUGUCCGAUUCUGGUGAAUCUGCGGAUUCUGCUGUAUAUCUC [C4U A45C A64G] | 0.72 |
| UAAUAGGGGGCCACAGCAGAAGCGUUCACGUCGCAGCCCCUGUCUGAUCCUGGUGAAUCUGCGAAUUCCGCUGUAUAUCUC [C4U A45U U49C U69C] | 0.08 |
| UAAUAGGGGGGCACAGCAGAGGCGUUCACGUCGCAGCCCCAGUCAGAUUCUGGUGAAUCUGCGAAUUCUGCUGUAUAUCUC [C4U C11G A21G U41A] | 0.39 |
| UAAUAGGGGGGCACAGCAGAAGCGUUCACGUCGCAGCCCCAGUCAGAUUCUGGUGAAUCUGCGAAUUCUGCUGUAUAUCUC [C4U C11G U41A] | 0.45 |
| UAAUAGGGGGUCACAGCAGAAGCGUUCACGUCGCAGCCCCUGUCAGACUCAGGUGAAUCUGCGAAUUCUGCUGUAUAUCUC [C4U C11U U48C U51A] | 0.1 |
| UAAUAGGGGGCUACAGCAGAAGCGUUCGCGUCGCAGCCCCUGUCGGAUUCUGCUGAAUCUGCGAAUUCUGCUGUAUGUCUC [C4U C12U A28G A45G G53C A77G] | 0.73 |
| UAAUAGGGGGCUAUAGCUGAAGCGUCCACGUCGCAGCCCCUGUCAGAUUCUGGUGAAUCUGCGAAUUCUGCUGUAUAUCUC [C4U C12U C14U A18U U26C] | 0.44 |
| UAAUAGGGGGCCACAGUAGAAGCGUUCACGUCGCAGCCCCUGUCAGAUUCUGGUGAAUCUGCGAAUUCCGCUGUAUAUCUC [C4U C17U U69C] | 0.3 |
| UAAUAGGGGGCCACAGCAGAAGUGUCCACGUCGCUGCCCCUGCCAGAUCCUGGUGAAUCUGCGAAUUCUGCUGUAUAUCUC [C4U C23U U26C A35U U43C U49C] | 0.2 |
| UAAUAGGGGGCCACAGCAGAAGCGUUCACGUCGCAGCUCCUGUCAGAUUCUGGUGAAUCUACGAAUUCUGCUGUAUAUCUC [C4U C38U G61A] | 0.47 |
| UAAUAAGGGGCCACAGCAGAAGCGUUCACGUCGCAGCCCCUGUCAGAUUCUGGUGAAUCUGCGAAUUCUGCUGUUUACCUC [C4U G6A A75U U78C] | 0.52 |
| UAAUAGGGAGCCACAGCAGAAGCGUUCACGACGCAGCCCCUGUCAGAUUCUGGUGAAUCUGCGAAUUCUGCUGUAUAUCUC [C4U G9A U31A] | 0.09 |
| UAAUAGGGAGCCACAGCAGAAGCGUUCACGUCGCAGCCCCCGUCAGAUUCUGGUGAAUCUGCGUAUUCUGCUGUAUAUCUC [C4U G9A U41C A64U] | 0.16 |
| UAAUAGGGUGCCACGGCUGAAGCGUUCACGUCGCAGCCCCUGUCAGAUUCUGGUGAAUCUGCGCAUUCUGCUGUAUAUCUC [C4U G9U A15G A18U A64C] | 0.07 |
| UAAUAGGGGGCCACAGCAGAAACGUCCACGUCGCAGCCCCUGUCAGAUUCUGGUGAAUCUGCGAAUUCUGCUGUAUAUCUC [C4U G22A U26C] | 0.46 |
| UAAUAGGGGGCCACAGCAGAAGCCUUCACGUCGCAGCCCCUGUCAGAUGCUGGUGAAUCUGCGAAUUCUGCUGUACAUCUC [C4U G24C U49G U76C] | 0.19 |
| UAAUAGGGGGCCACAGCAGAAGCGUUCACGUCGCAACCCCUGUCAGAUUCUGGUGAAUCUGCGAAUUCUGCAGUAUAUCAC [C4U G36A U72A U80A] | 0.35 |
